Results from article PMC4336329 (PLoS ONE, 2015).
Out of some 310,000 compounds screened, about 14,000 (4.5%) showed an effect of 50% or more. Effects have a minus sign here. Some of the results follow.

The compounds below were run against human ether-à-go-go-related gene (hERG) potassium channel (human, UniProt Q12809) (assay: primary screen, population patch clamp on CHO cells stably expressing hERG).
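Further: peak tail current of the secondary pulse compared with the same well before compound.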

Sequence of human ether-à-go-go-related gene (hERG) potassium channel (Q12809 whole entry, looked up): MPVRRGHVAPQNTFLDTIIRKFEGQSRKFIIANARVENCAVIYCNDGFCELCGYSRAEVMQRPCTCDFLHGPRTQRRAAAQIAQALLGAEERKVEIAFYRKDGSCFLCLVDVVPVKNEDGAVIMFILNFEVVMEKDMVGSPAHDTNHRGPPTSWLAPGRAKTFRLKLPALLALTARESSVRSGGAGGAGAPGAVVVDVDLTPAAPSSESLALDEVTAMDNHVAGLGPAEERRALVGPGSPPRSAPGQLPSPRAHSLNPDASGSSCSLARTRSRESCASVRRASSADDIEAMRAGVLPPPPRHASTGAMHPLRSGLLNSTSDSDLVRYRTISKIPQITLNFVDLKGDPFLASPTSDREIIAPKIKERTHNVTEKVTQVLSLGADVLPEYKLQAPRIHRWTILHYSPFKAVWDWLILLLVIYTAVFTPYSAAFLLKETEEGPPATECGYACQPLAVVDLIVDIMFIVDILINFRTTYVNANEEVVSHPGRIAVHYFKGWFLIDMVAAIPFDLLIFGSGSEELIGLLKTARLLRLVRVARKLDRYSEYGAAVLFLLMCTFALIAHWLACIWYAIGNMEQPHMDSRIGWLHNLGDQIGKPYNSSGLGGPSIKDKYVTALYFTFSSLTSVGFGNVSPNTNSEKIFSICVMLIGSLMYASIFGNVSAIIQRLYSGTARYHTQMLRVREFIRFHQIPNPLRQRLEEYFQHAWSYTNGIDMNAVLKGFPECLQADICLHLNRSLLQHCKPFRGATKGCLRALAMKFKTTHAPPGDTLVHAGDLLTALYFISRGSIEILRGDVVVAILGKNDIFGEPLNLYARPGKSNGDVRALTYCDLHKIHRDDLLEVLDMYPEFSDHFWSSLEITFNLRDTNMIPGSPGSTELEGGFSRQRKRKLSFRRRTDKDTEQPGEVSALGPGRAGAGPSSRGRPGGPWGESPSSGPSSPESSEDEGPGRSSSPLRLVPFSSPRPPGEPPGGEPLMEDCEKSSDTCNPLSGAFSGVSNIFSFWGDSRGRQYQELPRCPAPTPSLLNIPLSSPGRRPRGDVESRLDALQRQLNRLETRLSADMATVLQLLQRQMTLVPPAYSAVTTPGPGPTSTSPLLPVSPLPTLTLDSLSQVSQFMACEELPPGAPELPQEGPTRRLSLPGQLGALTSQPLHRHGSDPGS

SMILES | hERG current change (%, negative = inhibition) at 10uM [%]
Cc1cc(C)c2nc(-c3ccccn3)cc(C(=O)N3CCCC3)c2c1 | 5.63
COc1cc(Br)c(C2CC(=O)Nc3cc(OC)c(OC)cc32)cc1OC (stereo not drawn) | 7.69
Cc1ccc(-n2c(CNC(=O)c3cccs3)nnc2SCC(=O)NO)cc1 | 12.1
COc1ccc(CNC(=O)C2CCN(S(=O)(=O)c3cccc4nonc34)CC2)cc1 | -0.634
CC(=O)N1c2c(cc(Br)cc2S(=O)(=O)N2CCOCC2)CC1C (stereo not drawn) | -0.158
Cc1[nH][nH]c(=O)c1C(c1ccc(Br)cc1)c1c(C)[nH][nH]c1=O.Cl | 3.87
N/C(=N\N=C\c1ccc(Br)o1)c1nonc1N | 13
NC(=O)c1ccccc1N=Cc1cccnc1 | -21
COc1ccc(N2C(=O)CC(N3CCN(c4ccc(Cl)cc4)CC3)C2=O)cc1 (stereo not drawn) | -4.94
O=C(N/N=C/c1ccccc1Cl)C1CC1 | 4.02
O=C(Nc1cccc(Cl)c1)OCCN1CCN(Cc2ccccc2)CCC1=O | -30.6
Cc1[nH]c(C)c(S(=O)(=O)Nc2ccc(OC(F)(F)F)cc2)c1C(=O)N1CCCCC1 | -7.79
O=S(=O)(NCC1COc2ccccc2O1)c1ccc2ccccc2c1 (stereo not drawn) | 17.3
Cc1ccccc1NC(=O)CNc1ccc(Cl)c(C(F)(F)F)c1 | 13.5
CCSc1nnc2nc3[nH]c4c(C)cccc4c3nn12 | 0.372
COc1cc(CN(C)CC2CCCN(CCc3ccccc3F)C2)cc(Cl)c1OC (stereo not drawn) | -69.8
CCc1ccccc1NC(=S)NCc1cccn1C | 10.7
Cc1ccccc1CSc1nnc(-c2ccncc2)n1C | 9.26
Cc1cc(C)c2c(C)c(C(=O)NCc3ccc(S(N)(=O)=O)cc3)oc2c1 | 29.4
O=C(NCCCN1CCOCC1)C(=O)NCc1ccc(Cl)cc1 | -7.65
Cc1cccc(NC(=S)N2CCC(C(N)=O)(N3CCCCC3)CC2)c1C | 23.9
CCNC(=O)NC(=O)C(C)Sc1nc2cc(C(=O)OC)ccc2c(=O)n1-c1ccccc1 (stereo not drawn) | -17.9
CCCc1cc(=O)[nH]c(SCC(=O)C(C)(C)C)n1 | 15

SMILES | hERG current change (%, negative = inhibition) at 10uM [%]
CN1C(=O)c2cccc(NCCCCCCN3C(=O)c4ccccc4C3=O)c2C1=O | 5.41
CCOC(=O)N1CCN(C(=O)c2ccc(CS(=O)(=O)c3ccccc3OC)o2)CC1 | -6.01
O=C1OCC(Cn2c3ccccc3c3ccccc32)O1 (stereo not drawn) | -7.48
CC(=O)Oc1ccc(C(=O)[C@H]2[C@H]3C(=O)N(c4ccc(C)cc4C)C(=O)[C@H]3[C@@H]3C=CC=NN32)cc1 | 8.69
C(=N\NCc1ccccc1)/c1ccc2nccnc2c1 | -1.82
Cn1c(=O)[nH]c(=O)c2c1nc(Br)n2C/C=N/NC(=O)c1ccccc1 | 6.13
COc1ccc(-c2c(-c3ccccc3OC)sc3ccccc23)cc1OC | 9.81
Cc1ccccc1OCC(=O)NNC(=O)C1CCN(c2ncnc3sc(C)c(C)c23)CC1 | -19.3
O=C(O)CCc1nn2c3ccccc3nc2n(-c2ccccc2)c1=O | -2.32
Cc1ccccc1C(=O)N1CCN(C(c2ccccc2)c2ccccc2)CC1.Cl | 2.11
CCOc1cc(CNCc2ccccn2)cc(Cl)c1OC.Cl | 29.6
CCOC(=O)C1CCN(CC(O)COC(CC)c2ccccc2)CC1.Cl (stereo not drawn) | -63.7
CC1S/C(=N/N=C/c2ccco2)NC1=O (stereo not drawn) | 10.4
CCOC(=O)Cc1csc(NC(=O)CSc2nnc(-c3ccncc3)n2Cc2ccco2)n1 | -5.63
Cn1c(N)c(C(=O)COC(=O)C2=NNC(=O)CC2)c(=O)n(C)c1=O | 20.2
COc1ccccc1NC(=O)C/C(C)=N/NC(=O)c1ccccn1 | 0.673
COc1cc(OC)cc(-c2c(-c3cccs3)c3cc(-c4ccc(OC)cc4F)ccc3n2C)c1 | 18.6
[Na+].[S-]c1nnc(-c2ccc(Cl)cc2)n1Cc1ccccc1 | 21.4
Cc1ccc(C)c(OCc2nc3ccc(S(=O)(=O)Nc4c(C)n(C)n(-c5ccccc5)c4=O)cc3[nH]2)c1 | 7.31
Cc1cc(=O)oc2c(C)c(OC(C)C(=O)NCCCN3CCOCC3)ccc12 (stereo not drawn) | -5.21
CCN1CCN(c2cc(C)c3cc(NC(=O)c4ccc5c(c4)OCO5)ccc3n2)CC1 | -38.6
CCS(=O)(=O)N1CCc2cc(OC)c(OC)cc2C1 | 4.18
CC(C)NC(=O)CN(C)S(=O)(=O)c1ccc(F)cc1 | 11.1

SMILES | hERG current change (%, negative = inhibition) at 10uM [%]
O=C(Nc1cc(N2CCCCC2)ncn1)c1ccccc1 | -1.93
CN(C)CCCNCCCNC(=O)/C(=N\O)c1ccccn1 | 9.88
CC(C)(C)c1ccc(OCC(=O)NNC(=S)NC(=O)c2ccco2)c(Br)c1 | 24.6
ClC1(CNc2ccccc2)CCN(Cc2ccccc2)CC1.O=C(O)/C=C\C(=O)O | -9.96
O=C(C1CC(=O)N(c2ccc(Cl)cc2)C1)N1CCCCCC1 (stereo not drawn) | -8.92
O=C(NCCN1CCN(c2ccccc2)CC1)C1CCN(S(=O)(=O)c2cccc3nonc23)CC1 | -2.99
O=C(Cc1cccc2ccccc12)N1CCN(c2ncccn2)CC1 | -18.8
O=C(Cc1ccccc1)N1CCN(CC2CC=CCC2)CC1 (stereo not drawn) | -3.05
CNc1nc(C)nc(-n2nc(C)cc2C)n1 | 15.8
CCCCOc1ccc(-c2nc(SCC(N)=O)n[nH]2)cc1 | -1.68
O=C(NCc1ccc(F)cc1)C1CCCN(C(=O)Nc2ccccc2)C1 (stereo not drawn) | -38.5
O/N=C/c1ccccc1Oc1ccc(Cl)cc1 | -33.9
CCNc1c(NC(C)=O)c(=O)oc2ccccc12 | 21
Cn1c(SCc2nc(-c3ccc(Cl)cc3)no2)nnc1-c1ccco1 | -53.2
O=C1C(=O)N(CCN2CCCCC2)c2ccccc21 | -11.5
CC(C)(C)c1ccc(C(=O)NC(Cc2ccccc2)C(=O)O)cc1 (stereo not drawn) | -4
Cc1cccc(CC(=O)c2c[nH]c3ccccc23)c1 | 12.1
CCCCn1c(CN2CCN(C(=O)OCC)CC2)nc2c1c(=O)n(C)c(=O)n2C | -18.1
Cc1c(CN2CCc3c([nH]c4ccccc34)C2C2CCCCC2)cnn1C (stereo not drawn) | -38.7
CNc1nnc(-c2ccncc2)s1 | -0.587
Cc1csc(NC(=O)C2CC(=O)N(c3ccc(C)c(C)c3)C2)n1 (stereo not drawn) | 9.45
Cc1ccccc1Cn1nnc(-c2ccc(C(=O)O)cc2)n1 | 5.45
COCc1cc(Sc2ccc(Cl)cc2Cl)nc(-c2ccccc2)n1 | 11.4

SMILES | hERG current change (%, negative = inhibition) at 10uM [%]
Cc1cc([N+](=O)[O-])nn1CC(=O)N1CCCc2ccccc21 | -1.79
Cc1cc(C)n(C(=O)CCNC(=O)c2ccccc2Cl)n1 | 6.77
Cc1sc[n+](CC(=O)c2ccc(Br)cc2)c1C.[Br-] | -12.7
O=S(=O)(Nc1ccccc1)c1ccc(Oc2ncc(C(F)(F)F)cc2Cl)cc1 | -3.02
CC(C)Oc1cccc(C(=O)Nc2ccc(N3CCN(C)CC3)cc2)c1 | -24.5
CC1CCCCC1NC(=O)c1ccncc1 (stereo not drawn) | 6.03
CCC(C)[C@H](NS(=O)(=O)c1ccc(C)cc1)C(=O)N1CCC(C(=O)N2CCC(C(=O)OC)CC2)CC1 (stereo partly drawn) | -1.88
Cc1ccc(C(=O)Cn2c3[n+](c4ccccc42)CC(O)CS3)cc1.[Br-] (stereo not drawn) | 20.4
CCOc1ccc(CN(C)C(=O)CCc2ccc(S(=O)(=O)N3CCCCCC3)cc2)cc1 | -45.1
CS(=O)(=O)c1ccc(-c2cn3cc(C(=O)O)ccc3n2)cc1 | 25.9
O=C(CCN1CCCC1)Nc1cccc(Br)c1 | -20.6
Cc1ccc(NC(=O)CN(C)CC(=O)Nc2ccccc2Oc2ccccc2)cc1.O=C(O)C(=O)O | 16.1
CC1=C(C(=O)Nc2ccccn2)C(c2cccnc2)n2nnnc2N1 (stereo not drawn) | 6.57
COc1cccc(NC(=O)COC(=O)c2nc3nccc(C)n3n2)c1 | -5.88
CC1(C)CC(=O)N(c2ccc(C#N)cc2)C(=O)C1 | 18.5
CCOC(=O)c1ccc(NC(=O)CNC(=O)c2ccco2)cc1 | 13.8
CN(c1ccccc1)c1nc2ccsc2c(=O)s1 | 4.47
O=C(NCc1ccco1)C1CCCN1C(=O)Nc1ccccc1 (stereo not drawn) | -1.65
O=[N+]([O-])c1cc(-c2ccc(/C=N/n3cnnc3)o2)ccc1Cl | -12.5
Cn1c(SCC(=O)c2ccccc2)ncc(C(=O)Nc2ccc(F)cc2)c1=O | 12.4
Cc1ccc(N2CC(C(=O)Nc3nnc(SCCC4OCCO4)s3)CC2=O)cc1 (stereo not drawn) | 8.84
